Test results taken from PubChem BioAssay AID1671193 (National Center for Advancing Translational Sciences (NCATS), 2021).
Among all 150,000 compounds or so, about 180 (0.12%) were called active. Inconclusive means that the source gave no clear call. Such entries were picked first, then a sample of the others. The call rests on the fitted dose curve; in most records, active means well fitted cell-killing curve with a large enough effect; inconclusive means small, poorly fitted or top-dose-only effect, or effect the other way; inactive means flat fitted curve, though single readings scatter. A potency beside an inconclusive call is a rough fit, not a confirmed value.

Assay: GF-AFC viability counterscreen for inhibitors of alpha-synuclein gene (SNCA) expression; further: nearly all actives have a fitted effect of over 30% in size;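 on activity change, negative = cytotoxicity: 0% = DMSO-treated cells and -100% = medium-only wells without cells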
Conditions: HEK-293-SNCA-luc viability, GF-AFC fluorescence, 24 h; activity change, negative = cytotoxicity: at 57.1 µM (top of the series) unless noted
Summary of the method: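 HEK-293-SNCA-luc cells (1500/well) plated 24 h, then exposed 24 h to a dilution series; GF-AFC added 30 min at 37C, fluorescence 405/540 nm; normalised to medium-only and DMSO wells, Hill fit.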
Potency means the concentration at half of the fitted maximal effect; tags describe the fitted curve by direction and shape.

With CC(C)[C@]12O[C@H]1[C@@H]1O[C@]13[C@]1(O[C@H]1C[C@H]1C4=C(CC[C@@]13C)C(=O)OC4)[C@@H]2O as the compound, how does the Potency read?
Its Potency is inconclusive: 84.4 nM [cytotoxic, full curve, poor fit].

Which Potency does the source give for CCOC(=O)c1ccnc2cc(C(OCCN3CCCCC3)c3ccccc3Cl)sc12 (configuration not stated) here?
Its Potency is inconclusive: 8440 nM [cytotoxic, partial curve, poor fit].

For O=[N+]([O-])c1ccc(Cl)nc1N1CC2CCC(C1)N2CC(F)(F)F, which Potency is on record?
The Potency was inconclusive: 44700 nM [cytotoxic, single point].

With COc1cc2c(cc1OCc1ccccc1)N([S+](=O)([O-])c1cn(C)cn1)CC21CCN(C)CC1 as the compound, how does the “activity change, negative = cytotoxicity” value read?
Its value is inactive: -8.48%.

With CCOC(=O)[C@H]1CN(C(=O)Nc2ccc3c(c2)OCO3)[C@]2(C)C(=O)N(CC3CC3)c3ccccc3[C@H]12 as the compound, how does the “activity change, negative = cytotoxicity” value read?
The value was inactive: -2.64% [at 23.9 µM].

With CCCN(CCC)CCc1c[nH]c2ccccc12 as the compound, how does the Potency read?
The Potency was inconclusive: 2510 nM [rising, full curve, poor fit].

With COc1cccc(N2CC3CCC(C2)N3CC(F)(F)F)n1 as the compound, how does the “activity change, negative = cytotoxicity” value read?
Its value is inactive: -6.08%.

For COc1cc2c(c(OC)c1OC)-c1ccc(SC)c(=O)cc1[C@@H](NC(C)=O)CC2, which Potency is on record?
Its Potency is inconclusive: 67 nM [cytotoxic, full curve, poor fit].

For CC(C)OC(=O)c1ccnc2cc(C(OCCN3CCCCC3)c3ccccc3Cl)sc12 (configuration not stated), which Potency is on record?
Its Potency is active: 29900 nM.

For COc1ccccc1-c1cc([C@H]2CN3CC[C@H]2C[C@@H]3COC(=O)Nc2ccc(C(C)C)cc2)n(C)n1, which “activity change, negative = cytotoxicity” value is on record?
The value was inactive: -7.92%.

With CCNC(=O)NC[C@H]1C[C@@H]2CCN1C[C@@H]2c1cc(-c2ccc3ccccc3c2)nn1C as the compound, how does the Potency read?
Its Potency is inconclusive: 56200 nM [cytotoxic, single point].

For O=C1[C@H]2CNC[C@H]2C(=O)N1CCc1ccccc1, which “activity change, negative = cytotoxicity” value is on record?
Its value is inactive: 5.48%.

For COc1cc2c(cc1OCc1ccccc1)NC(=O)C21CCN(c2ccnc(C)n2)CC1, which Potency is on record?
Its Potency is inconclusive: 35500 nM [cytotoxic, partial curve, poor fit].

With CC(=O)O[C@H]1C[C@]2(O)[C@@H]3CC[C@@H]4C[C@@H](O)CC[C@]4(C)[C@H]3CC[C@]2(C)[C@H]1c1ccc(=O)oc1 as the compound, how does the Potency read?
The Potency was inconclusive: 106 nM [cytotoxic, full curve, poor fit].

Which activity change, negative = cytotoxicity does the source give for O=C(Cc1ccccn1)N1CCN(Cc2ccccc2-c2ccccc2F)CC1 here?
The activity change, negative = cytotoxicity was inactive: 3.91% [at 12.5 µM].

Which Potency does the source give for C[C@]12CC[C@H](O)C[C@@]1(O)CC[C@@H]1[C@@H]2CC[C@]2(C)[C@@H](c3ccc(=O)oc3)CC[C@]12O here?
The Potency was inconclusive: 106 nM [cytotoxic, full curve, poor fit].

Which Potency does the source give for C[C@@]12OC(=O)[C@]1([C@@H](O)[C@@H]1C=CCCC1)NC(=O)[C@H]2CCCl here?
The Potency was inconclusive: 171 nM [cytotoxic, full curve, poor fit].
